{"source": "PubChem BioAssay AID1347073", "about": "(National Center for Advancing Translational Sciences (NCATS), 2019)", "note": "The whole screen tested about 45,000 compounds, of which about 200 (0.44%) were called active. Inconclusive results (about 7%) are left out. The call rests on the fitted dose curve; in most records, active means well fitted activation curve with a large enough effect; inconclusive means small, poorly fitted or top-dose-only effect; inactive means no such curve, though single readings can be large or run the other way. The list shows a part of the results.", "data": [{"experiment": "qHTS of TDP-43 Inhibitors: NCGC Sytravon Library Screen; further: 0% is about no effect; nearly all actives have a fitted effect of over 55% in size", "conditions": "yeast TDP-43 toxicity rescue, BacTiter-Glo growth, 24 h; series mostly up to 46.1 µM; growth rescue (activation): at the top concentration", "procedure,_shortened": "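TDP-43-expressing yeast, pregrown in raffinose, seeded at OD600 0.02 in galactose medium with compound for 24 hr at 30 deg C. Growth read by BacTiter-Glo luminescence, so rescue of toxicity appears as activation.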", "values": [{"compound": "CCC(=O)NC(c1cccc([N+](=O)[O-])c1)c1c(O)ccc2ccccc12", "note": "(stereo not given)", "growth rescue (activation)": "inactive: -9.25%"}, {"compound": "Cc1nc2nc[nH]n2c(=O)c1NS(=O)(=O)c1ccc([N+](=O)[O-])cc1", "growth rescue (activation)": "inactive: 5.44%"}, {"compound": "N#C/C(=C\\c1ccc2c(c1)OCO2)C(=O)NCc1ccco1", "growth rescue (activation)": "inactive: -0.108%"}, {"compound": "Cc1ccc(NC(=O)Cn2c([N+](=O)[O-])cnc2C)cc1Cl", "growth rescue (activation)": "inactive: 2.28%"}, {"compound": "CCN(CC)CCOC(=O)c1cccc2c1-c1ccccc1C2O", "note": "(stereo not given)", "growth rescue (activation)": "inactive: -3.51%"}, {"compound": "Cn1c(O)c(N=NC(=O)Cn2c(C(F)(F)F)nc3ccccc32)c2ccccc21", "growth rescue (activation)": "inactive: 12.4%"}, {"compound": "O=C(c1cc(-c2ccccc2)on1)N1CCCCCC1", "growth rescue (activation)": "inactive: 22.4%"}, {"compound": "Cc1ccc(CCC(=O)Nc2ccccc2F)s1", "growth rescue (activation)": "inactive: 14.7%"}, {"compound": "CN(C)CCCNc1nc(-c2ccccc2)nc2ccccc12", "growth rescue (activation)": "inactive: 14.8%"}, {"compound": "Cc1ccc(-n2nc3c(=O)n(C(C)C(=O)O)nc(C)c3c2C)cc1", "note": "(stereo not given)", "growth rescue (activation)": "inactive: -8.74%"}, {"compound": "Cn1c(N)c(C(=O)COC(=O)CNC(=O)c2ccccc2F)c(=O)n(C)c1=O", "growth rescue (activation)": "inactive: -16.6%"}, {"compound": "CCN1CCCC1CNC(=O)C(=O)NCCc1ccc(OC)c(OC)c1", "note": "(stereo not given)", "growth rescue (activation)": "inactive: -14.9%"}, {"compound": "O=C(NCc1cccnc1)C12CC3CC(CC(C3)C1)C2", "growth rescue (activation)": "inactive: -8.49%"}, {"compound": "CCc1ccccc1NC(=S)N(CCN(C)C)C(C)c1ccco1", "note": "(stereo not given)", "growth rescue (activation)": "inactive: 1.09%"}, {"compound": "CC(=O)c1cccc(NC(=O)Nc2ccc(C)cc2)c1", "growth rescue (activation)": "inactive: -9.95%"}, {"compound": "Cc1c(C(=O)N2CCOCC2)sc(NC(=O)CCl)c1C#N", "growth rescue (activation)": "inactive: 8.42%"}, {"compound": "COC(=O)CN1C(=S)N(c2ccc(OC)cc2)C(=O)/C1=C/c1ccc(OC)cc1", "growth rescue (activation)": "inactive: -4.77%"}, {"compound": "O=C(c1ccco1)N1CCN(c2ncnc3c(-c4ccc(Cl)cc4)nsc23)CC1", "growth rescue (activation)": "inactive: 13.2%"}, {"compound": "Cc1ccc(C)c(N2N=C(C(=O)O)CCC2=O)c1", "growth rescue (activation)": "inactive: 10.2%"}, {"compound": "CCOC(=O)NC(O)C(=O)c1cccs1", "note": "(stereo not given)", "growth rescue (activation)": "inactive: 24.1%"}, {"compound": "N#Cc1ccccc1NC(=O)COC(=O)c1cccs1", "growth rescue (activation)": "inactive: -11.1%"}, {"compound": "COc1cccc(-c2cc(NC=O)c3ncc(-c4ccc(F)c(Cl)c4)n3c2)c1", "growth rescue (activation)": "inactive: 26.9%"}, {"compound": "CC(=O)N1N=C(c2ccc(C)o2)CC1c1cccc(F)c1", "note": "(stereo not given)", "growth rescue (activation)": "inactive: 6.06%"}, {"compound": "CCOc1ccc2ccccc2c1/C=N/NC(=O)CNC(=O)c1ccccc1F", "growth rescue (activation)": "inactive: -13.2%"}, {"compound": "Cc1ccc([N+](=O)[O-])cc1NC(=O)c1ccc(-c2ccccc2)cc1", "growth rescue (activation)": "inactive: 1.1%"}, {"compound": "Cc1ccc(NC(=O)C2(C)CCN2C(=O)Cc2ccccc2)cc1C", "note": "(stereo not given)", "growth rescue (activation)": "inactive: 25.7%"}, {"compound": "O=C(Nc1ccc2c(c1)OCO2)c1ccc2sc([C@H]3C[C@H](O)[C@@H](CO)O3)nc2c1", "growth rescue (activation)": "inactive: -2.33%"}, {"compound": "COc1cc(-c2noc(-c3nnn(-c4ccc(Cl)cc4)c3C)n2)cc(OC)c1OC", "growth rescue (activation)": "inactive: 12.1%"}, {"compound": "CSc1nc2ccc(NS(=O)(=O)c3ccc4c(c3)OCCO4)cc2s1", "growth rescue (activation)": "inactive: 24.6%"}, {"compound": "COc1ccccc1/C=C/C(=O)OCC(=O)NC1CCS(=O)(=O)C1", "note": "(stereo not given)", "growth rescue (activation)": "inactive: 13.5%"}, {"compound": "CC(O)(c1cccc(F)c1)c1nc(-c2cc(F)cc(F)c2)cs1", "note": "(stereo not given)", "growth rescue (activation)": "inactive: -58.7%"}, {"compound": "CCOc1ccc(NC(=S)N2CCCN(Cc3cccc(Cl)c3)C2)cc1", "growth rescue (activation)": "inactive: 10.7%"}, {"compound": "CCOc1ncccc1C(=O)NCCc1c[nH]c2ccccc12", "growth rescue (activation)": "inactive: 28.4%"}, {"compound": "COC(=O)c1ccc(NC(=S)NCCCn2ccnc2)cc1", "growth rescue (activation)": "inactive: 7.87%"}, {"compound": "O=C(C1CCN(S(=O)(=O)N2CCOCC2)CC1)N1CCN(c2ccccc2F)CC1", "growth rescue (activation)": "inactive: -13.6%"}, {"compound": "COc1ccc(-c2ccc(SCC(=O)N3CC(=O)Nc4ccccc43)nn2)cc1", "growth rescue (activation)": "inactive: -8.06%"}, {"compound": "COCCCNc1oc(/C=C/c2ccccc2)nc1C#N", "growth rescue (activation)": "inactive: 26.7%"}, {"compound": "O=S(=O)(Cc1cccc(C(F)(F)F)c1)c1ncn[nH]1", "growth rescue (activation)": "inactive: 3.54%"}, {"compound": "C=CCn1cc(-c2cccc(C(F)(F)F)c2)cc(C#N)c1=O", "growth rescue (activation)": "inactive: 11.2%"}, {"compound": "CC(C)N(CCO)C(=O)CCc1nnc(CCCc2ccccc2)o1", "growth rescue (activation)": "inactive: -8.03%"}, {"compound": "O=C(O)c1ccc[nH]c1=S", "growth rescue (activation)": "inactive: -0.0437%"}, {"compound": "COc1ccc(Nc2nc(-c3ccccc3)c3cc(Br)ccc3n2)cc1", "growth rescue (activation)": "inactive: 7.04%"}, {"compound": "CC(C)Oc1ccc(CNC(=O)c2ccc3c(c2)N(Cc2ccc(F)cc2)CCS3)cc1", "growth rescue (activation)": "inactive: -0.275%"}, {"compound": "CC(=O)NCCc1nc2ccccc2n1CCc1ccccc1", "growth rescue (activation)": "inactive: -13.6%"}, {"compound": "COC(=O)c1ccccc1NC(=O)COC(=O)/C=C/c1cccs1", "growth rescue (activation)": "inactive: 12.1%"}, {"compound": "Cc1cc(NC(=O)CCCn2nc([N+](=O)[O-])cc2C)no1", "growth rescue (activation)": "inactive: -6.2%"}, {"compound": "COc1ccc(C(=O)NN/C(=N/S(=O)(=O)c2ccc(C)cc2)c2ccccc2)cc1", "growth rescue (activation)": "inactive: 20.8%"}, {"compound": "COCCN(C(=S)Nc1ccccc1C)C(C)c1cccs1", "note": "(stereo not given)", "growth rescue (activation)": "inactive: 9.84%"}, {"compound": "O=C(c1ccccc1NS(=O)(=O)c1cccc(C(F)(F)F)c1)N1CCc2ccccc21", "growth rescue (activation)": "inactive: 14.3%"}, {"compound": "CC(=O)Nc1scc(-c2ccccc2)[n+]1-c1ccc(C)cc1", "growth rescue (activation)": "inactive: 26.4%"}, {"compound": "Cc1cc(C)nc(/N=C(\\N)Nc2ccc(OCc3ccccc3)cc2)n1", "growth rescue (activation)": "inactive: 2.51%"}, {"compound": "O=c1c2c(n3cnnc3n1-c1ccccc1)-c1ccccc1CC21CCCC1", "growth rescue (activation)": "inactive: -8.6%"}, {"compound": "Cc1oc(-c2ccc(-c3ccccc3)cc2)nc1CN1CCN(CC(=O)N(C)C)CC1", "growth rescue (activation)": "inactive: 9.83%"}, {"compound": "O=S1(=O)CCC(=Nc2ccc(Cl)cc2)c2ccsc21", "growth rescue (activation)": "inactive: 2.61%"}, {"compound": "O=C(Nc1ccccc1C(=O)Nc1ccncc1)c1ccccc1", "growth rescue (activation)": "inactive: -6.62%"}]}]}
